Laboratory results published in PubChem BioAssay AID1645887 (National Center for Advancing Translational Sciences (NCATS), 2021).
Values joined by “and” are separate entries in the source; they are usually repeats but may differ in a detail not shown here. Equal entries are not always repeated. The campaign covered roughly 16,000 compounds. About 40 (0.2%) were called active. Roughly 1% stayed inconclusive and do not appear here. Calls come from the whole dose curve; as a rule, active = well fitted activation curve with a large enough effect; inconclusive = small, poorly fitted or top-dose-only effect, or another doubt; inactive = no such curve, though single readings can be large or run the other way. The list shows a part of the results.

biological target: Rap guanine nucleotide exchange factor 4 (Homo sapiens) (UniProt Q8WZA2); experiment: Validation qHTS for agonist of cAMP-regulated guanine nucleotide exchange factor 4 (EPAC2); conditions: EPAC2 Rap1B BODIPY-GDP exchange, fluorescence; activation: hits give high values;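 note: exchange makes BODIPY-GDP fluorescence drop when released from Rap1B; series mostly up to about 150 µM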
Sequence of UniProt Q8WZA2 (Q8WZA2 whole entry, looked up): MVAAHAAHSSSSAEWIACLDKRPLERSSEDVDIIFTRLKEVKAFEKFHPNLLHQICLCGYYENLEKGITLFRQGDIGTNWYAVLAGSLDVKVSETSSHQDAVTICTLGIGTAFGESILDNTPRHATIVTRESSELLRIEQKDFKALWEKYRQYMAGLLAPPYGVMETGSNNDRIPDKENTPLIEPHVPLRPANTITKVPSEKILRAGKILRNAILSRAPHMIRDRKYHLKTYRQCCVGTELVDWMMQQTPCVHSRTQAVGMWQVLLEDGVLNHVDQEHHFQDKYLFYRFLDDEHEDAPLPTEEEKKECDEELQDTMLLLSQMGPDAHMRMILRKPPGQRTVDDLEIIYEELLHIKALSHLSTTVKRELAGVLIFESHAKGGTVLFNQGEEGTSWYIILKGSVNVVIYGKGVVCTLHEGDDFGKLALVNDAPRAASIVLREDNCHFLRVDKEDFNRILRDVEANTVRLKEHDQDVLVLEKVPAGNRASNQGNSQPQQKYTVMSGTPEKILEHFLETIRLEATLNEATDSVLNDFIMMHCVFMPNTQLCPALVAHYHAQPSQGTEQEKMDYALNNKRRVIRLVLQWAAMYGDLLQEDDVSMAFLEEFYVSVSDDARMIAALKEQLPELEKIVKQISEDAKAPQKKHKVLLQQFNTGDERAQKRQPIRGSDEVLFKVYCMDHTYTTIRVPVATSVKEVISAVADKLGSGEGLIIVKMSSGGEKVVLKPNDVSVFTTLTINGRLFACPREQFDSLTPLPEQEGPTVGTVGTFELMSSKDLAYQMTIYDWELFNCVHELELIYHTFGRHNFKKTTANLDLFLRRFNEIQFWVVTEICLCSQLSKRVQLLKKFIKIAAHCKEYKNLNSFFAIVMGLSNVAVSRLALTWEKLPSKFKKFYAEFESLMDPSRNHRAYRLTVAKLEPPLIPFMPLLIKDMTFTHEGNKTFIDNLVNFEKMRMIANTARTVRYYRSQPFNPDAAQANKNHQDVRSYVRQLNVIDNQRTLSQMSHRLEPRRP
How it was run: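 Fluorescent exchange assay: 100 nM EPAC2 with 250 nM RAP1B-BODIPY-GDP and 50 uM GDP; compound added, 5 min at room temperature, then read (ex 480/em 540 nm) every 5 min for 30 min. Normalized to 6.5 mM cAMP agonist control.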
% is set by controls: 0 for no effect and ±100 for the full control effect.

activation, inactive:
CO[C@H]1[C@H](NC(=O)C(C)C)c2ccccc2C12CCN(Cc1c(C)nn(C)c1Cl)CC2 -0.554%, CCn1c(-c2ccccc2F)nc2cc(C(=O)NCC3CCOCC3)cc(NC(C)=O)c21 -1.26%, O=C(Nc1ccccc1)N1CCC2(CCNCC2)CC1 -8.32%, CSc1cc2c(cc1C(F)(F)F)N(C(=O)Nc1cccnc1)CC2 -12.2%, CCCCC 2.77%, c1cncc(CNc2ncncc2-c2ccoc2)c1 -8.07%, C/C(=C\c1ccco1)CN1CCOc2ccc(CN3CCC(Oc4cccnc4)CC3)cc2C1 -11.2%, CC1(C)OC[C@@H]2O[C@@]3(C(=O)O)OC(C)(C)O[C@H]3[C@@H]2O1 10.2%, CC(C)/C(O)=C1/C(=O)OC(c2ccoc2)[C@@]2(C)C(O)C(O)[C@@]34OC5(C)OC67CC(C)(C(O)[C@@]6(O)C(O)[C@@]3(O5)C12)C(CC(=O)O)[C@@]74C (some centres undefined) -11.9%, Cc1ccc2c(/C=C/c3ccc(N(C)C)cc3)ccnc2c1C -15.7%, Cc1noc(C)c1C(=O)N1CCC2(CCCN(C(=O)Nc3cccc(F)c3)C2)CC1 -14.1%, COc1cc2c(Nc3ccc(Br)cc3F)ncnc2cc1OCC1CCN(C)CC1 19.4%, CS(=O)(=O)N1CCC2(CCN(Cc3ccc(C#N)cc3)CC2)CC1 -22.1%, CCCCCCCC/C=C\CCCCCCCC(=O)OC[C@H](CO)OC(C)=O -29.7%, Cc1ccnc2ccc(N)cc12 -20.7%, CCOC(=O)COc1ccc2c(=O)cc(-c3ccccc3)oc2c1 -10.9% and 4.28%, C/C(N[C@@H]1CSCC1O)=C1/C(=O)CC2[C@@H]1C2(C)C (some centres undefined) -5.38%, COc1c(CC(=O)c2cc3c(cc2O)OC(C)(C)C(O)C3)ccc2c1C=CC(C)(C)O2 (centres undefined) -4.6%, O=C(O)c1nc2cc(Cl)c(Cl)cc2[nH]c1=O -12.1%, CCC[N+](C)(C)c1ccc(/C=C/c2ccncc2)cc1 -34.5%, Cn1c(SCC2CCCO2)nnc1C1CCN(Cc2ccc(-c3cccc(Cl)c3)o2)CC1 (centres undefined) -4.89%, CCCC1CC(C(=O)N[C@H](C(C)O)C2OC(SC)[C@@H](O)C(O)C2O)N(C)C1 (some centres undefined) 3.83%, CCC(CO)NCCNC(CC)CO (centres undefined) -6.66%, CCCCCCCC/C=C\CCCCCCCCOC[C@H](COP(=O)([O-])OCC[N+](C)(C)C)OC(C)=O -25.4%, Fc1ccc(CN(C2=NCCN2)c2c(Cl)cccc2Cl)cc1 -18.3%, CC(=O)Nc1ccc(/C=C/c2ccccn2)cc1 -32.8%, O=c1c(CCc2ccccc2)nc2cnc(N3CCNCC3)nc2n1Cc1cccs1 -12%, IC(I)I 5.04%, CN1C(=O)c2ccccc2C1=O -8.55%, CC(=O)[C@H](CC(C)C)NC(=O)[C@@H](CC(C)C)NC(=O)[C@H](CC(C)C)NC(=O)OCc1ccccc1 -10.3%, COc1ccccc1-c1ccc2ncnc(N(C)Cc3ccco3)c2c1 -2.37%, O=S1(=O)CCOCCCN1Cc1ccccc1Br -32.5%, CC[C@@H]1C(=O)[C@H](Cc2ccccc2)[C@H]2CCCC(=O)N3CC[C@@H]1[C@@H]23 -22.4%, Cc1cccc(CNC(=O)c2cnn(-c3nccc(-c4ccccc4C(F)(F)F)n3)c2C)n1 -10.7%, COc1ccccc1-c1ccnc(-n2ncc(C(=O)N(C)C(C)c3ccon3)c2C2CC2)n1 (centres undefined) -9.56%, COc1ccc(NC(=O)N2CC[C@@]3(CCCN(C(=O)c4ccco4)C3)C2)cc1 -17.6%, Cc1noc(C)c1C(=O)N1CCC2(CCN(C(=O)NC(C)C)CC2)CC1 -9.65%, Cc1cnc(CNc2cc(-c3ccoc3)ncn2)cn1 14%, COc1cc(C)c(CN2CCC3(CCC(CNC(=O)c4ccnn4C)O3)CC2)cc1C (centres undefined) 3.87%, O=C(c1cnccn1)N1CCC[C@@]2(CCN(Cc3nccs3)C2)C1 -13.4%, CC1=C(C(=O)OCc2ccccc2)N2C(=O)[C@@H](NC(=O)COc3ccccc3)[C@H]2SC1 -9.76%, COc1c2c(cc3c1C(NC(N)=O)[N+](C)(C)CC3)OCO2 (centres undefined) -3.4%, CCCCC/C=C\C/C=C\C/C=C\C=C\[C@@H](O)CCCC(=O)O 2.77%, CCCCCCCCCCCCCCC[C@H](O)[C@@H](N)CO -7.41% and 7.27%, COc1ccc(Oc2ncc3ncc(=O)n(Cc4cccc(OC)c4)c3n2)cc1 1.04%, COC(=O)CCC(C)C1CCC2C3C(O)C[C@@H]4CC(O)CC[C@@]4(C)C3CC(O)[C@]12C (some centres undefined) -17.8%, C[C@H]1CN(CCc2ccccc2)C(=O)[C@@H]1CC(=O)NCc1ccccc1 -6.92%, COc1cccc(-c2cc(NCc3ccccc3OC)ncn2)c1 12.6%, CCCCN(CCCC)CC(O)c1cc(Cl)cc2c1-c1ccc(Cl)cc1/C2=C/c1ccc(Cl)cc1 (centres undefined) -0.0196%, COc1cc2[nH]c(C)c(CCN3CCN(c4ccccc4)CC3)c2cc1OC 7.1%, Cc1cc(O)cc(C)c1Cl -15.3% and -5.75%, Cc1noc(C)c1-c1cc(Nc2ccccc2)ncn1 -22.3%, C[C@@H]1CCC[C@H](C)N1 -9.63%, Oc1cccc(O)c1 -12.1% and -12.4%, O=C(Nc1nccs1)[C@@H]1CC=C[C@@H]2CCN(C3CC3)C(=O)[C@@H]21 -19.1%, O=C1C=CC(=O)c2c(O)c(Cl)c(Cl)c(O)c21 -16.4%, COc1cc2c(cc1O)-c1ccccc1CN(C)C2 -13.8%, CCC(=O)OCC(=O)[C@@]1(OC(=O)CC)[C@H](C)C[C@H]2[C@@H]3CCC4=CC(=O)C=C[C@]4(C)[C@@]3(F)[C@@H](O)C[C@@]21C -3.83%, COC(=O)N1CCC2(CC1)CCN(c1ccccn1)CC2 -2.59%, Cc1nc2cnc(N3CCN(C)CC3)nc2n(Cc2ccc(F)cc2)c1=O 6.43%, COc1cc(C2=N/C(=C\c3ccccc3)C(=O)O2)cc(OC)c1OC -12%, COC(=O)CCC(=O)CN -9.95%, C[C@@H]1CCC(=O)N(C[C@@H](C)CSc2ccccc2)CC1 -34.9%, Clc1ccccc1CNCC1CCC(CNCc2ccccc2Cl)CC1 (centres undefined) -8.47%, C=C1CCC(C2CC(=O)OC2=O)C(=O)CCC2C1CC2(C)C (centres undefined) -3.18%, CCC(=O)N[C@@H]1Cc2ccccc2[C@@H](c2ccccc2)C1 -19.1%, O=C(O)c1cc(=O)c2c(Cl)cc(Cl)cc2[nH]1 -9.62% [middle of 4 runs], CC1(C)S[C@@H]2[C@H](NC(=O)C3(N)CCCCC3)C(=O)N2[C@H]1C(=O)O 5.29%, O=C(O)c1ccccc1S -5.86%, CN(C)c1ncc2nc(-c3cc(F)cc(F)c3)c(=O)n(CCC#N)c2n1 -5.46%, COC(=O)N1CCC[C@@]2(CCN(c3ccccc3)C2)C1 4.39%, C1CCc2nnnn2CC1 -21.1% and -4.99% and -42.1%, c1cncc(CNc2cc(-c3ccc4c(c3)OCO4)ncn2)c1 -10.6%, Cn1cccc1C(=O)N1CCC[C@@]2(CCN(Cc3ccc(C#N)cc3)C2)C1 -9.11%, COc1ccc2cc(CN(C(=O)c3cc(C)nn3C)C3CC3)c(-c3ccc(Cl)cc3)nc2c1 8.83%, O=[N+]([O-])c1ccc(CSc2ncnc3c2ncn3[C@@H]2O[C@H](CO)[C@@H](O)[C@H]2O)cc1 -18%, CNC[C@@H](O)[C@@H](O)[C@H](O)[C@H](O)CO -3.34%, O=Nc1ccc2oc(=O)ccc2c1 -41.2%, CC[C@H]1OC(=O)[C@H](C)[C@@H](O[C@H]2C[C@@](C)(OC)[C@@H](O)[C@H](C)O2)[C@H](C)[C@@H](O[C@@H]2O[C@H](C)C[C@H](N(C)C)[C@H]2O)[C@](C)(O)C[C@H](C)C(=NOCOCCOC)[C@H](C)[C@@H](O)[C@]1(C)O -4.72%, O=S(=O)(c1ccccc1)N1CCC2(CCCN(Cc3ccncc3)C2)CC1 -9.24%, CC(N)CCCC(C)(C)O (centres undefined) 6.8%, Cn1cc(-c2nc3cnc(Oc4ccccc4)nc3n(C3CC3)c2=O)c2ccccc21 -0.893%, CCCCC[C@H](O)/C=C/[C@@H]1[C@H]2C/C(=C/CCCC(=O)O)C[C@H]2C[C@H]1O -8.43%, COc1cccc(Nc2ncc3ncc(=O)n(Cc4ccc(F)cc4)c3n2)c1 -23.6%, CCCOc1ccc2nc(NC(=O)OC)sc2c1 7%, N#CCC(=O)NN -22.5%, CC(=C(CCOP(=O)(O)O)SC(=O)c1ccccc1)N(C=O)Cc1cnc(C)nc1N -8.33%, Cc1cccc(C)c1NC(=O)CN1CCCC1 -11.9%, O=C(c1ccco1)N1CCC2(CC1)CCN(c1cccc(-c3ccccc3)c1)CC2 -6.49%
